Results taken from article PMC12136788.
The other results are listed elsewhere or left out.

B1: chr1:87369078:87369079:-_ENSG00000183291_ENST00000370554|hu_hu|FALSE|FALSE (ssRNA)
RNA: GGGAGUUCUACAGUCCGACGAUCCAGGUUGAACUGUCCGAGAAGAUCACAAGAGCUGCAAAGCAAGUUGCUAGAAAAGCCUAACUCUCUGCAUGCCUCCGAUGAAAACUCUGCCCCAAAAGCAGACACCGCUUGAAGCACAGUCAACAGAGGAUUGAGCAUCA
B2: chr19:29096225:29096226:-_ENSMUSG00000024782_ENSMUST00000025696|mus_hu|FALSE|FALSE (ssRNA)
RNA: GGGAGUUCUACAGUCCGACGAUCAGUACAUCAGCAACCAUCCUUUAGAUUCCAAUUUUUAAAUGGCUGCUCAGACGACACCAAUAGAGUUCUUUCUCCUUAAAAUAUGGUGGCAGUGAAUGCUAACAGGUAUCAAUUUCUUUGCAACAGAGGAUUGAGCAUCA
B3: 131237850_131237970_937_3pUTR_ENSMUSG00000025809_ENSMUST00000090006|mouse|control|control (ssRNA)
RNA: GGGAGUUCUACAGUCCGACGAUCACUCUCCUCUGUCAGUAAGACUAAGCACAUUUUUGUAGCUAAAUGGGCUGGUGCAGUUUUGUUCACUUGUACAAGGAUUUCUUAGCUUUGCUGGGGUUGUGCUAAUAUACGGCAUCACAGCAACAGAGGAUUGAGCAUCA
B4: chr7:65705844:65705845:+_ENSG00000169902_ENST00000304842|hu_mus|hu_hu_hu_mus_False|28_88 (ssRNA)
RNA: GGGAGUUCUACAGUCCGACGAUCAAACGGAUCUUUGUUACAUAAAUAAGGGGCUGGCUCCCCAUGUUUAACAAUGACCUCCAGAAGGAAGGCUUGCAUGGCAGAAUCCAGCACUUCAUCUGUGACACCCGCCUCAUCCAAGCGCAACAGAGGAUUGAGCAUCA
B5: 182598990_182599358_972_3pUTR_ENSMUSG00000058729_ENSMUST00000085803|mouse|control|control (ssRNA)
RNA: GGGAGUUCUACAGUCCGACGAUCGAUAAGGAAUUCCACUGGAAAGCCUCCUAACGUCUCCGUGUCAGAGCCAGAAACUUUACUUCUCCAAGGUGACUGCCCCAGUAAAGGAUCGCCAUCUGUAAUUGGUGACUGGAGAGGAGGCAACAGAGGAUUGAGCAUCA
B6: chr11:86991360:86991361:+_ENSMUSG00000018548_ENSMUST00000041282|mus_hu|motif|central (ssRNA)
RNA: GGGAGUUCUACAGUCCGACGAUCUUCUCGAAUGAUAUUUUUUGUAGGAUCAUUACAGGACUGGUGAACCAUCUCGGCACGAUAUUCAUAUUUAGAAGUUUCAGGCAAGCCAGCUGAGAGCUCCAGAAACACAGAUAAGUAGUACAACAGAGGAUUGAGCAUCA
B7: chrX:35777509:35777510:-_ENSMUSG00000016534_ENSMUST00000061755|mus_hu|FALSE|FALSE (ssRNA)
RNA: GGGAGUUCUACAGUCCGACGAUCCUUUCCUUGUGUCACAUUGAAAGGCUGAACCCUUAGAUCAAAGGUAUUUAUCUGAAAUGCUCCAGACACUGAAACAGUCUGCUCUUUGUUGCACAUAUAAGAACUUCCCAGGGGGGCAUCCAACAGAGGAUUGAGCAUCA
B8: 108390681_108390801_2218_CDS_ENSMUSG00000034557_ENSMUST00000106657|mouse|control|control (ssRNA)
RNA: GGGAGUUCUACAGUCCGACGAUCGUUGACUGCUGAGUUCUCCCCUAGCUUUGCUUUCCCAAGAACAUCAUUUUUGUUUUUACUAUUAUUUCCAUUGUUUGCAGGAAGGUCAUUUUGUAAAUGGUCUGAUAAUGGCUUUGGAAUCAACAGAGGAUUGAGCAUCA
B9: chr4:144460044:144460045:+_ENSG00000153147_ENST00000283131|hu_mus|hu_hu_hu_mus_False|1_68 (ssRNA)
RNA: GGGAGUUCUACAGUCCGACGAUCACGGUCCAUAGCCUGAAGAUCAACUUGCGGAUUCCAAUCUGAGUCAUACAAAAUGACUACAUCAGCAGUUGCAAGAUUGAUGCCCAGACCACCAGCACGUGUGCUUAGCAUAAAAACAAACAACAGAGGAUUGAGCAUCA
B10: chr1:80263381:80263382:-_ENSMUSG00000004364_ENSMUST00000163119|mus_mus|FALSE|FALSE (ssRNA)
RNA: GGGAGUUCUACAGUCCGACGAUCAAUUUUGCAUCUCUUUUGCCAUUUUUGCUACCCAACUUACACAAUGCGCAAAGUGCUAAUAAGCAACACUACAGAAACACAUUUACAUCAACACUGAAGACCUGGGGAAAUGAAAUCCAACAACAGAGGAUUGAGCAUCA
B11: 17831384_17831504_2669_CDS_ENSMUSG00000037369_ENSMUST00000044484|mouse|control|control (ssRNA)
RNA: GGGAGUUCUACAGUCCGACGAUCAUCUCCAUGGCUAGGACUGCAAACAGCAUCUGCCAUCACCUGAUGGACAUGAUUAGGAAGUCCCUCAACACUGGCAGUGCUGUUAGGUGUCUCUCCAGUUUGCCUGCUUGUUUCAGGCACCAACAGAGGAUUGAGCAUCA
B12: 181319571_181319691_2535_CDS_ENSMUSG00000000823_ENSMUST00000128553|mouse|control|control (ssRNA)
RNA: GGGAGUUCUACAGUCCGACGAUCGCUCCGGGACCCCCUGUCUCUGCCUCCUGGGGGCCAGUCAUCCCUGUUAGGGGGGAGCUUAGAUGCUGGCUCCUCGGAGGAUCGUUCCUUGGGUUUGCGGCCCCGCUUCUUUCCUCCUGACAACAGAGGAUUGAGCAUCA
B13: chr9:53392976:53392977:-_ENSMUSG00000032047_ENSMUST00000034547|mus_hu|FALSE|FALSE (ssRNA)
RNA: GGGAGUUCUACAGUCCGACGAUCUUUCAAUCCCACAUCUUUAAGAACCAUAGAUGCAGCAUAUACAGGAGCAAUUGGAAAAUCAAUAGGUUCUACAGCAGCGUCAGCAAAUGCUACUAUUCUUGCCAGUGGUGUAACAUUGAGCAACAGAGGAUUGAGCAUCA
B14: chr19:16212804:16212805:+_ENSG00000167460_ENST00000300933|hu_mus|hu_hu_hu_mus_False|28_88 (ssRNA)
RNA: GGGAGUUCUACAGUCCGACGAUCAACAAUUCUGGAGUGAAGGAAAGCAUCAAGGAUGAACAGCAUUAAAGCUCAGUCAGAAGGCACAUGGGCAACAAUGAUCACCCCCCAAGCAUUGCUUGGAAUGCUUAAAGACAAUCUGUUCAACAGAGGAUUGAGCAUCA
B15: chr13:55314840:55314841:+_ENSMUSG00000021488_ENSMUST00000099490|mus_mus|motif|central (ssRNA)
RNA: GGGAGUUCUACAGUCCGACGAUCAUCACUUUUUGCAGGGUCUUGAAAGGAUUCUGAUCCAUCAGCAGACCCACUUAAAUAUUCGGCAUUGAUCAUGGAGGCCAAAUCCUGUAGUCUCCGCAGUGGAAUGUAACAAGAUGGAGACAACAGAGGAUUGAGCAUCA
B16: 17602526_17605274_3153_CDS_ENSG00000125844_ENST00000246043|human|control|control (ssRNA)
RNA: GGGAGUUCUACAGUCCGACGAUCGAGCAGAGCCAGCAGGGCCUCCAUGGUCUGCGCCUCAAUCAGACAGAGCUGCUUCUCCGAUUCCUCCUUGGCCUGGGUCAGGGAGAGCAGCUUCUCCUUGCAGGCCUGCUCGGCCGUGGCCAACAGAGGAUUGAGCAUCA
B17: chr13:14279204:14279205:+_ENSMUSG00000039219_ENSMUST00000039538|mus_mus|FALSE|FALSE (ssRNA)
RNA: GGGAGUUCUACAGUCCGACGAUCAUCUGUAUGGACUUUGUUUUCUUCUAGCAAAGAUGGACUACUCUGUUCCUCUUUUGAAAUCAGUUCAUUUCUGCUGUGGGUUGAAUGUUCCACCUUUGAUUCGUCUUUGCCAAUGUUAUCCAACAGAGGAUUGAGCAUCA
B18: 146276283_146277518_615_3pUTR_ENSMUSG00000037110_ENSMUST00000109986|mouse|control|control (ssRNA)
RNA: GGGAGUUCUACAGUCCGACGAUCUUCCUCUGGGUAUAUUUUUGCAUCAACUAUACUAGGGCUAGGGUUGAUGAGUGUCUCCAGUGUGCAGGGACCCCUGGAUGACAAGACCGCUGGGAAACCAGGCACUAGGCAAGCGAAAAUCAACAGAGGAUUGAGCAUCA
B19: chr2:114699772:114699773:+_ENSG00000115091_ENST00000536059|hu_hu|motif|central (ssRNA)
RNA: GGGAGUUCUACAGUCCGACGAUCUGACCCAUCUGUAUCAUACUUGUUAAAUUCUUUUACUAAAUCUGGGCAGACAUAACGGUAGCGCUCCUUUACUGCCUUAGCAGUUUCCAAGGAUUGUUCUGGAGGGAUUCCUACUUCUCGCAACAGAGGAUUGAGCAUCA
B20: chr2:198351390:198351391:-_ENSG00000144381_ENST00000345042|hu_hu|hu_hu_hu_mus_False|38_58 (ssRNA)
RNA: GGGAGUUCUACAGUCCGACGAUCUCAUUCCCACCCUCCACAGAAAGGCUGCUUCUGAACUCUCAUGUGGUGACACAGCACUAAAAUCCUGAUGCUCACAGAAUAGUAGAGAUGCCUCAGUGAUUUAAGUUGAAAGCAGGACACCAACAGAGGAUUGAGCAUCA
B21: chr7:23547099:23547100:-_ENSG00000164548_ENST00000297071|hu_mus|FALSE|FALSE (ssRNA)
RNA: GGGAGUUCUACAGUCCGACGAUCUGGUCUGCCCAUGUAAAUGCCUGGUGUGGGUGUGUGCGCUCUCUUGGUGAUAGAAUAAUCCACACGGAUUCUUCUACCGUCCAGCUCCAUCCCAUUUGCUCUCUCCAUAGCCUCCUUAGACAACAGAGGAUUGAGCAUCA
B22: chr12:36845622:36845623:-_ENSMUSG00000020547_ENSMUST00000020856|mus_hu|motif|central (ssRNA)
RNA: GGGAGUUCUACAGUCCGACGAUCUGCCAUCCAUGCUUUGAAAAGCUUGACAGCAAAUGAGGCCGCAAUGCCUUCUUUGACGGAGCUGUCGGUGAAGAGACUGGUGAGGAUGGUGGCGGGCAGGGUGCCAUUGCCCAGCAGAAUCAACAGAGGAUUGAGCAUCA

What follows are binders tested against T1, UNK ZnF1-3 (human, UniProt Q9C0B0 31-174) (assay: nsRBNS (natural sequence RNA bind-n-seq); RBNS binding buffer (assumed for nsRBNS): 25 mM Tris pH 7.5, 150 mM KCl, 3 mM MgCl2, 0.01% Triton X-100, 500 ug/ml BSA, 20 U/ml SUPERase-In, 4 C; UNK is unkempt and MSI1 is Musashi-1; names of the RNAs are library labels; protein concentration not given here; high values mean tight binding).
T1 sequence: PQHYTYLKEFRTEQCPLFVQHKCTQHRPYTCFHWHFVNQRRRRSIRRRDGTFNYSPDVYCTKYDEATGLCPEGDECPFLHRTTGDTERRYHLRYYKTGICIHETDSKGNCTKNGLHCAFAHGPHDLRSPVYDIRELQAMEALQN

Binder | binding signal [enrichment R]
B1 | 0.799
B2 | 1.35
B3 | 1.16
B4 | 0.518
B5 | 0.782
B6 | 1.59
B7 | 0.855
B8 | 0.555
B9 | 0.939
B10 | 1.43
B11 | 0.418
B12 | 0.7
B13 | 1.41
B14 | 1.53
B15 | 0.744
B16 | 0.533
B17 | 0.18
B18 | 1.45
B19 | 0.794
B20 | 1.19
B21 | 0.663
B22 | 0.968
